# Measurements: the supplement of paper PMC11348887
# Counter-ions that a name gives are not always drawn. The list shows a part of the results. Cut-off read from the data, not from the text of the source: active = -2 or less and inactive = the rest. Repeats are few or missing, and single values can be far off.
# Tested on: hPSC-derived cortical neurons (WA09)
# Assay: nuclei number (viability) z-score; higher = more surviving cells
# Settings: 5 µM; treatment: days 7-14 after plating, readout day 21
# 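Note: nuclei counted from DAPI counterstain by automated high-content image analysis, four fields per well at ×20 in 384-well plates, with sequential b-score then z-score normalization.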
row,Structure (SMILES),nuclei number (z-score)
1,CCOc1cn(-c2ccc(F)cc2C)nc1C(=O)Nc1ccc(Oc2ccnc3cc(OC)c(OC)cc23)c(F)c1,inactive: -0.239
2,C#C[C@]1(O)CC[C@H]2[C@@H]3CCC4=CC(=O)CC[C@@H]4[C@H]3CC[C@@]21C [Norethindrone],inactive: -0.529
3,O=C(NC[C@H](O)CN1CCc2ccccc2C1)c1ccnc(NC2CCC2)c1,inactive: 0.438
4,C=CCc1cc(OC)c(O)c(C(=O)NCCO)c1 [Alibendol],inactive: 0.592
5,CO[C@@]1(NC(=O)C(C(=O)O)c2ccc(O)cc2)C(=O)N2C(C(=O)O)=C(CSc3nnnn3C)CO[C@@H]21 (stereo partly specified) [Moxalactam Disodium],inactive: 2.69
6,COc1cc2c(cc1O)CC[C@@H]1[C@@H]2CC[C@]2(C)[C@@H](O)CC[C@@H]12 [2-Methoxyestradiol (2-MeOE2)],inactive: 0.175
7,COc1cc(N2CCN(C)CC2)ccc1Nc1nccc(-c2cn(C)c3cnccc23)n1,active: -6.11
8,COC(=O)C1=C(C)NC(C)=C(C(=O)OC)C1c1ccccc1[N+](=O)[O-] [Nifedipine],inactive: -0.723
9,CCCCCCCC(=O)N[C@H](CN1CCCC1)[C@H](O)c1ccc2c(c1)OCCO2 [Eliglustat Tartrate],inactive: -0.104
10,NC(=O)c1cccc2[nH]c(-c3ccc(C4CCCN4)cc3F)nc12 (stereo unspecified),inactive: 0.00843
11,CC(C)NC[C@H](O)COc1ccc(CCOCC2CC2)cc1 [Levobetaxolol HCl],inactive: 0.32
12,COC(=O)N1CCN(Cc2cccc(NC(=O)Nc3ccc(C)nc3)c2F)CC1,inactive: 2.48
13,O=C(O)CSc1cc(NS(=O)(=O)c2ccc(Br)cc2)c2ccccc2c1O,inactive: 0.344
14,CN(C)CCCN1c2ccccc2CCc2ccc(Cl)cc21 [Clomipramine HCl],inactive: 0.0982
15,Cc1cc(NC(=O)C2=C(O)c3ccccc3S(=O)(=O)N2C)no1 [Isoxicam],inactive: 0.387
16,Nc1ccc(O)c(C(=O)O)c1 [Mesalamine],inactive: 3.79
17,Clc1ccccc1CN1CCc2sccc2C1 [Ticlopidine HCl],inactive: 0.00193
18,O=C(O)P(=O)(O)O [Foscarnet Sodium],inactive: -0.322
19,CC(C)(C)NS(=O)(=O)c1cncc(-c2cc(F)c3nc(N)nn3c2)c1,inactive: 0.0161
20,Cc1nc(C)c(Cl)c(O)c1Cl [Clopidol],inactive: 0.0736
21,CCN(CC)CCCC(C)Nc1c2ccc(Cl)cc2nc2ccc(OC)cc12 (stereo unspecified) [Quinacrine 2HCl],active: -3.2
22,CC(=O)N1CCN(c2ccc(OCC3COC(Cn4ccnc4)(c4ccc(Cl)cc4Cl)O3)cc2)CC1 (stereo unspecified) [Ketoconazole],inactive: -0.551
23,CN(CCOc1ccc(NS(C)(=O)=O)cc1)CCc1ccc(NS(C)(=O)=O)cc1 [Dofetilide],inactive: 7.39

row,Structure (SMILES),nuclei number (z-score)
1,Cc1[nH]c(/C=C2\C(=O)Nc3ccccc32)c(C)c1CCC(=O)O [TSU-68 (SU6668_ Orantinib)],inactive: 0.941
2,CNc1ncc2cc(-c3cc(NC(=O)NCCC(C)(C)C)c(F)cc3C)c(C)nc2n1,inactive: 0.405
3,COc1ccc2cccc(CCNC(C)=O)c2c1 [Agomelatine],inactive: -0.671
4,COc1cc(C=O)ccc1O [Vanillin],inactive: 6.6
5,C1=N/C2=N/c3ccc(OCCN4CCCC4)c(c3)COC/C=C/COCc3cccc(c3)C(=C1)N2 [Pacritinib (SB1518)],active: -4.71
6,CN(C)C(=O)c1ccc(S(=O)(=O)c2ccc(NC(=O)[C@@](C)(O)C(F)(F)F)c(Cl)c2)cc1,inactive: 1.28
7,C#C[C@]1(O)CC[C@H]2[C@@H]3CCc4cc(OC)ccc4[C@H]3CC[C@@]21C [Mestranol],inactive: 0.427
8,CC(C)NCC(O)c1ccc(NS(C)(=O)=O)cc1 (stereo unspecified) [Sotalol],inactive: -0.556
9,CO[C@H]1C[C@@H]2CC[C@@H](C)[C@@](O)(O2)C(=O)C(=O)N2CCCC[C@H]2C(=O)O[C@H]([C@H](C)C[C@@H]2CC[C@@H](O)[C@H](OC)C2)CC(=O)[C@H](C)/C=C(\C)[C@@H](O)[C@@H](OC)C(=O)[C@H](C)C[C@H](C)/C=C/C=C/C=C/1C [Rapamycin (Sirolimus)],inactive: -0.204
10,N[C@@H]1CCCN(c2c(/C=C3\SC(=O)NC3=O)cccc2-c2ccccc2)C1,inactive: 1.37
11,N#Cc1ccc2[nH]c(O)c(-c3ccc(CN4CCOCC4)cn3)c2c1,inactive: -0.721
12,Oc1ccc(Nc2nc(-c3ccc(Cl)cc3)cs2)cc1,inactive: -0.287
13,NS(=O)(=O)c1ccc(C(=O)O)cc1 [Carzenide],inactive: 0.186
14,COc1cc2ncnc(Nc3ccc(Cl)cc3F)c2cc1OC,inactive: 0.584
15,N#C[C@@H]1CCCN1C(=O)CNC12CC3CC(CC(O)(C3)C1)C2 [Vildagliptin (LAF-237)],inactive: 1.48
16,CCN(CC)CCN(Cc1ccc(-c2ccc(C(F)(F)F)cc2)cc1)C(=O)Cn1c(SCc2ccc(F)cc2)nc(=O)c2c1CCC2,active: -5.8
17,O=C(O[C@@H]1Cc2c(O)cc(O)cc2O[C@@H]1c1cc(O)c(O)c(O)c1)c1cc(O)c(O)c(O)c1 [(-)-Epigallocatechin Gallate],inactive: 2
18,CC(C)C[C@H](NC(=O)CNC(=O)c1cc(Cl)ccc1Cl)B(O)O,active: -7.45
19,CC(C)(CO)[C@@H](O)C(=O)NCCCO [D panthenol],inactive: 0.164
20,COC(=O)c1ccc2c(c1)NC(=O)/C2=C(\Nc1ccc(N(C)C(=O)CN2CCN(C)CC2)cc1)c1ccccc1 [Nintedanib (BIBF 1120)],inactive: -0.725
21,CNC[C@H](O)c1cccc(O)c1 [Phenylephrine HCl],inactive: 3.11
22,N[C@@H]1CN(c2c(F)cc3c(=O)c(C(=O)O)cn([C@@H]4C[C@@H]4F)c3c2Cl)CC12CC2 [Sitafloxacin Hydrate],inactive: -0.62
23,CCOc1ccn(-c2ccc(F)cc2)c(=O)c1C(=O)Nc1ccc(Oc2ccnc(N)c2Cl)c(F)c1,inactive: 1.47
